Measurements published in the BET-seq Pho4 binding data (Le et al. 2018).
Some of the results follow. Values were computed here from the reads of four pooled replicates and scatter widely.

target: T1, Pho4 (S. cerevisiae) (UniProt P07270); test: relative binding free energy (BET-seq); higher = weaker binding; conditions: reference: library average
T1 sequence: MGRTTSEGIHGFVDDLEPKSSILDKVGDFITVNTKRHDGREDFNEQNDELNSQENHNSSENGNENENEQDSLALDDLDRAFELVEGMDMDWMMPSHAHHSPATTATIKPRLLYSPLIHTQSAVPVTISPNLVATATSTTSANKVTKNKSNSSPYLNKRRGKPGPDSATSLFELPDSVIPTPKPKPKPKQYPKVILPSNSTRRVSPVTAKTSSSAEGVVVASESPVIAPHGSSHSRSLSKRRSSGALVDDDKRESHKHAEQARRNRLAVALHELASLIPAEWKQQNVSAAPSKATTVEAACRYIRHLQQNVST

Row | Sequence | relative binding free energy
1 | ACAGTCACGTGGGGTG | -0.09 kcal/mol
2 | ACTTTCACGTGAGTGG | 0.35 kcal/mol
3 | ACATTCACGTGTTAGG | 0.22 kcal/mol
4 | GGGGACACGTGAGGAG | 0.28 kcal/mol
5 | TTATACACGTGTTGTG | -0.05 kcal/mol
6 | TTTTGCACGTGTGCGT | 0.01 kcal/mol
7 | GAGTTCACGTGTTTGC | 0.3 kcal/mol
8 | ATGGGCACGTGGAACT | 0.03 kcal/mol
9 | ATATACACGTGTAGGG | 0.09 kcal/mol
10 | GAAAACACGTGGTGTA | 0.06 kcal/mol
11 | CATGTCACGTGGTTGA | 0.02 kcal/mol
12 | CTATGCACGTGTGGGC | -0.03 kcal/mol
13 | GCATTCACGTGGTGGA | 0.31 kcal/mol
14 | GAATTCACGTGCAGGT | 0.38 kcal/mol
15 | TAAGGCACGTGAGTGA | 0.01 kcal/mol
16 | GGGCACACGTGTGGAT | 0.06 kcal/mol
17 | TAAGGCACGTGGCGAG | -0.16 kcal/mol
18 | GGGGCCACGTGGGGGC | -0.09 kcal/mol
19 | GATAGCACGTGGAGTG | 0 kcal/mol
20 | TTATTCACGTGAACTT | 0.29 kcal/mol
21 | CTAGGCACGTGGAGGG | -0.28 kcal/mol
22 | TGTGCCACGTGAGGGT | 0.15 kcal/mol
23 | CGAGGCACGTGGGCGG | -0.36 kcal/mol
24 | GTAAACACGTGGGTGA | -0.14 kcal/mol
25 | TAGTGCACGTGCTTAT | -0.19 kcal/mol

Row | Sequence | relative binding free energy
26 | TGCGGCACGTGTATCG | 0.05 kcal/mol
27 | TTGGTCACGTGGCTTA | 0 kcal/mol
28 | ATCGGCACGTGGCGGA | -0.06 kcal/mol
29 | TAGGTCACGTGTGCAT | 0.16 kcal/mol
30 | GAGGTCACGTGGAAAG | 0.2 kcal/mol
31 | GCGCTCACGTGTGGTG | 0.16 kcal/mol
32 | AATGACACGTGGGGAA | 0 kcal/mol
33 | TGGGGCACGTGCGTTG | -0.16 kcal/mol
34 | GTTTACACGTGTTAAC | 0.28 kcal/mol
35 | AGGAGCACGTGCATGT | -0.12 kcal/mol
36 | TTGGTCACGTGATTTC | 0.43 kcal/mol
37 | GGGCTCACGTGTGGAG | 0.28 kcal/mol
38 | CTGTGCACGTGTTTTG | 0.07 kcal/mol
39 | AGGTACACGTGACGGG | 0.22 kcal/mol
40 | TAGACCACGTGGTAGG | -0.03 kcal/mol
41 | TTAACCACGTGTGGTT | -0.14 kcal/mol
42 | GTGGACACGTGGTCGC | -0.04 kcal/mol
43 | TTGATCACGTGTATAA | 0.11 kcal/mol
44 | ATTCCCACGTGGGGTT | -0.13 kcal/mol
45 | GGATTCACGTGGTGTT | 0.27 kcal/mol
46 | TAGTTCACGTGGTTGG | 0.33 kcal/mol
47 | ATGTGCACGTGGTGAT | -0.19 kcal/mol
48 | TTGGTCACGTGCGGCT | -0.04 kcal/mol
49 | GTCAGCACGTGGCGGT | -0.17 kcal/mol
50 | TGGCGCACGTGTGAAG | 0.07 kcal/mol

Row | Sequence | relative binding free energy
51 | GTGATCACGTGTTTAG | 0.19 kcal/mol
52 | TTTTTCACGTGGATAG | 0.3 kcal/mol
53 | CTGGCCACGTGTTGTG | -0.03 kcal/mol
54 | ATTTGCACGTGACGTT | 0 kcal/mol
55 | TTTTACACGTGTGGAT | 0.26 kcal/mol
56 | TGTGGCACGTGTTTCT | -0.04 kcal/mol
57 | AGGGTCACGTGGGCAT | -0.1 kcal/mol
58 | ATTTTCACGTGAGAGC | 0.48 kcal/mol
59 | GGTGTCACGTGTCAAG | 0.1 kcal/mol
60 | AGGATCACGTGGCGAA | 0.26 kcal/mol
61 | TGGTACACGTGGTAAA | 0.09 kcal/mol
62 | AGGTGCACGTGATTGA | 0.18 kcal/mol
63 | GGGTTCACGTGTTACA | 0.34 kcal/mol
64 | TGTAACACGTGAAATG | 0.25 kcal/mol
65 | TGGGCCACGTGTATGG | -0.06 kcal/mol
66 | AGGGGCACGTGTGAGG | -0.05 kcal/mol
67 | GAATGCACGTGATGGG | 0.07 kcal/mol
68 | GTAGGCACGTGGGTGA | -0.13 kcal/mol
69 | AAGTTCACGTGTTGTG | 0.31 kcal/mol
70 | AGAGTCACGTGAAGAG | 0.18 kcal/mol
71 | TGATTCACGTGTTTTT | 0.4 kcal/mol
72 | AGGATCACGTGCTTGA | 0.24 kcal/mol
73 | TGGCTCACGTGGTTTC | 0.27 kcal/mol
74 | AGGGGCACGTGGTCGA | -0.27 kcal/mol
75 | TTCAGCACGTGTTGGT | -0.14 kcal/mol

Row | Sequence | relative binding free energy
76 | TGATTCACGTGTATGT | 0.22 kcal/mol
77 | GGTGTCACGTGGGGGG | 0 kcal/mol
78 | AGTAACACGTGGGAGT | -0.17 kcal/mol
79 | TGTATCACGTGTACTG | 0.13 kcal/mol
80 | AGCTGCACGTGCGTGT | -0.11 kcal/mol
81 | GTGGGCACGTGGGGCC | -0.24 kcal/mol
82 | TTATGCACGTGCGGTC | 0.01 kcal/mol
83 | GTTGTCACGTGTTAAC | 0.22 kcal/mol
84 | GTAATCACGTGGTATG | 0.04 kcal/mol
85 | AATGTCACGTGTGGTG | 0.13 kcal/mol
86 | CGGGACACGTGGTATT | 0 kcal/mol
87 | GTGTACACGTGTTTCG | 0.1 kcal/mol
88 | ATAGTCACGTGTTGTT | 0.2 kcal/mol
89 | CCGGTCACGTGGTGTG | -0.15 kcal/mol
90 | CGGGGCACGTGGGGGA | -0.22 kcal/mol
91 | CTGGACACGTGCTGGT | 0.09 kcal/mol
92 | CGGCGCACGTGTGTTT | 0 kcal/mol
93 | TGCGGCACGTGCTGGC | -0.13 kcal/mol
94 | TTGCACACGTGGTGTG | -0.14 kcal/mol
95 | ATGAGCACGTGAGGAA | 0.16 kcal/mol
96 | GTATTCACGTGGCTTT | 0.24 kcal/mol
97 | TCTGCCACGTGTAGGG | 0.08 kcal/mol
98 | GGTTGCACGTGTACTG | 0.04 kcal/mol
99 | ATGTGCACGTGTATCG | 0.03 kcal/mol
100 | GGCGGCACGTGGATAT | 0.09 kcal/mol

Row | Sequence | relative binding free energy
101 | TCTGGCACGTGGATGG | -0.07 kcal/mol
102 | GGGGACACGTGCGGAG | -0.05 kcal/mol
103 | CGGTTCACGTGTATGG | 0.23 kcal/mol
104 | CGAGACACGTGGTGTG | -0.02 kcal/mol
105 | CTGGTCACGTGCGCGG | -0.1 kcal/mol
106 | TGGCTCACGTGTTTCT | 0.26 kcal/mol
107 | GGGGTCACGTGCGGGT | 0.19 kcal/mol
108 | TATAGCACGTGGGTTG | -0.19 kcal/mol
109 | GGGACCACGTGGAGAG | 0.03 kcal/mol
110 | TAGTGCACGTGTAGTA | 0.01 kcal/mol
111 | ACGTTCACGTGTGTCG | 0.24 kcal/mol
112 | TGTAACACGTGTTTGG | -0.04 kcal/mol
113 | TTTGTCACGTGCCTGA | 0.07 kcal/mol
114 | TGTTCCACGTGTAAAG | 0.25 kcal/mol
115 | TCTTACACGTGTAGGG | 0.08 kcal/mol
116 | GCGGGCACGTGGCAGT | -0.13 kcal/mol
117 | TGCATCACGTGGTGAA | 0.09 kcal/mol
118 | AGTTACACGTGGCGCG | 0.13 kcal/mol
119 | GGTCCCACGTGCGGGG | -0.12 kcal/mol
120 | GTTTTCACGTGGAATG | 0.37 kcal/mol
121 | CTTAGCACGTGATGAG | 0.17 kcal/mol
122 | TGGTTCACGTGGATGT | 0.27 kcal/mol
123 | GAGTGCACGTGATTCT | 0.32 kcal/mol
124 | TTAGCCACGTGATTGT | 0.06 kcal/mol
125 | GGATACACGTGTGAGT | 0.14 kcal/mol

Row | Sequence | relative binding free energy
126 | GTAGACACGTGAGTTA | 0.3 kcal/mol
127 | GGTCTCACGTGGGTTT | 0.25 kcal/mol
128 | GATAGCACGTGGAGTA | 0.08 kcal/mol
129 | TCGTTCACGTGTATTA | 0.29 kcal/mol
130 | TCTTTCACGTGGTGTG | 0.29 kcal/mol
131 | AGACGCACGTGTGTGT | -0.04 kcal/mol
132 | CACGTCACGTGGGTTG | -0.12 kcal/mol
133 | GAGGTCACGTGTTTCT | 0.18 kcal/mol
134 | TTGTTCACGTGGTTAC | 0.13 kcal/mol
135 | AGTGACACGTGAGGCT | 0.21 kcal/mol
136 | GTCGTCACGTGTTTTA | 0.14 kcal/mol
137 | ATGGTCACGTGTGGTG | 0.16 kcal/mol
138 | TGCTTCACGTGTATTT | 0.23 kcal/mol
139 | TCAGGCACGTGGAAGG | -0.05 kcal/mol
140 | ACTGGCACGTGGAGGA | -0.13 kcal/mol
141 | TTTTGCACGTGGAAAT | 0.16 kcal/mol
142 | TGTTTCACGTGCAAGA | 0.33 kcal/mol
143 | TTAGACACGTGAGGAT | 0.31 kcal/mol
144 | TTGCACACGTGGTGAT | -0.07 kcal/mol
145 | TCGAGCACGTGTGGAG | 0.07 kcal/mol
146 | TATTGCACGTGAAATT | 0.19 kcal/mol
